Assay results taken from the supplement of paper PMC8728848.
Some of the results follow.

What was measured:
Experiment in all cases: glycan array binding signal (z-score within array); higher = stronger binding
Details in all cases: glycan notation: IUPAC condensed, linker removed
[1] = biological target: Glc(a1-6)Glc(a1-6)Glc(a1-6)Glc
How it was run: (§1)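 Glycan array binding is given as a within-array Z-score, which can be read as non-binding when negative. The arrays, 3228 of them, came from the Consortium for Functional Glycomics database and were retained only where the protein sequence was available. Z-scores were averaged across arrays of the same protein sequence at different concentrations or buffers and across linkers.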

[2] = biological target: Glc(a1-6)Glc(a1-6)Glc(a1-6)Glc(a1-6)Glc
How it was run: as §1

[3] = biological target: Glc(a1-6)Glc(a1-6)Glc(a1-6)Glc(a1-6)Glc(a1-6)Glc
How it was run: as §1

[4] = biological target: Glc(a1-6)Glc(a1-6)Glc(a1-6)Glc(a1-6)Glc(a1-6)Glc(a1-6)Glc
How it was run: as §1

[5] = biological target: Glc(a1-6)Glc(a1-6)Glc(a1-6)Glc(a1-6)Glc(a1-6)Glc(a1-6)Glc(a1-6)Glc
How it was run: as §1

[6] = biological target: Glc(a1-6)Glc(a1-6)Glc(a1-6)Glc(a1-6)Glc(a1-6)Glc(a1-6)Glc(a1-6)Glc(a1-6)Glc
How it was run: as §1

[7] = biological target: Glc(a1-6)Glc(a1-6)Glc(a1-6)Glc(a1-6)Glc(a1-6)Glc(a1-6)Glc(a1-6)Glc(a1-6)Glc(a1-6)Glc
How it was run: as §1

[8] = biological target: Glc(a1-6)Glc(a1-6)Glc(a1-6)Glc(a1-6)Glc(a1-6)Glc(a1-6)Glc(a1-6)Glc(a1-6)Glc(a1-6)Glc(a1-6)Glc
How it was run: as §1

[9] = biological target: Glc(a1-6)Glc(a1-6)Glc(a1-6)Glc(a1-6)Glc(a1-6)Glc(a1-6)Glc(a1-6)Glc(a1-6)Glc(a1-6)Glc(a1-6)Glc(a1-6)Glc
How it was run: as §1

[10] = biological target: Glc(a1-6)Glc(a1-6)Glc(a1-6)Glc(a1-6)Glc(a1-6)Glc(a1-6)Glc(a1-6)Glc(a1-6)Glc(a1-6)Glc(a1-6)Glc(a1-6)Glc(a1-6)Glc
How it was run: as §1

[11] = biological target: Glc(b1-2)Glc
How it was run: as §1

[12] = biological target: Glc(b1-2)Glc(b1-2)Glc
How it was run: as §1

[13] = biological target: Glc(b1-2)Glc(b1-2)Glc(b1-2)Glc
How it was run: as §1

[14] = biological target: Glc(b1-2)Glc(b1-2)Glc(b1-2)Glc(b1-2)Glc
How it was run: as §1

[15] = biological target: Glc(b1-2)Glc(b1-2)Glc(b1-2)Glc(b1-2)Glc(b1-2)Glc
How it was run: as §1

[16] = biological target: Glc(b1-2)Glc(b1-2)Glc(b1-2)Glc(b1-2)Glc(b1-2)Glc(b1-2)Glc
How it was run: as §1

[17] = biological target: Glc(b1-2)Glc(b1-2)Glc(b1-2)Glc(b1-2)Glc(b1-2)Glc(b1-2)Glc(b1-2)Glc
How it was run: as §1

[18] = biological target: Glc(b1-2)Glc(b1-2)Glc(b1-2)Glc(b1-2)Glc(b1-2)Glc(b1-2)Glc(b1-2)Glc(b1-2)Glc
How it was run: as §1

[19] = biological target: Glc(b1-2)Glc(b1-2)Glc(b1-2)Glc(b1-2)Glc(b1-2)Glc(b1-2)Glc(b1-2)Glc(b1-2)Glc(b1-2)Glc
How it was run: as §1

[20] = biological target: Glc(b1-2)Glc(b1-2)Glc(b1-2)Glc(b1-2)Glc(b1-2)Glc(b1-2)Glc(b1-2)Glc(b1-2)Glc(b1-2)Glc(b1-2)Glc
How it was run: as §1

[21] = biological target: Glc(b1-2)Glc(b1-2)Glc(b1-2)Glc(b1-2)Glc(b1-2)Glc(b1-2)Glc(b1-2)Glc(b1-2)Glc(b1-2)Glc(b1-2)Glc(b1-2)Glc
How it was run: as §1

[22] = biological target: Glc(b1-2)Glc(b1-2)Glc(b1-2)Glc(b1-2)Glc(b1-2)Glc(b1-2)Glc(b1-2)Glc(b1-2)Glc(b1-2)Glc(b1-2)Glc(b1-2)Glc(b1-2)Glc
How it was run: as §1

[23] = biological target: Glc(b1-3)Glc
How it was run: as §1

[24] = biological target: Glc(b1-3)Glc(b1-3)Glc
How it was run: as §1

[25] = biological target: Glc(b1-3)Glc(b1-3)Glc(b1-3)Glc
How it was run: as §1

[26] = biological target: Glc(b1-3)Glc(b1-3)Glc(b1-3)Glc(b1-3)Glc
How it was run: as §1

[27] = biological target: Glc(b1-3)Glc(b1-3)Glc(b1-3)Glc(b1-3)Glc(b1-3)Glc
How it was run: as §1

[28] = biological target: Glc(b1-3)Glc(b1-3)Glc(b1-3)Glc(b1-3)Glc(b1-3)Glc(b1-3)Glc
How it was run: as §1

[29] = biological target: Glc(b1-3)Glc(b1-3)Glc(b1-3)Glc(b1-3)Glc(b1-3)Glc(b1-3)Glc(b1-3)Glc
How it was run: as §1

[30] = biological target: Glc(b1-3)Glc(b1-3)Glc(b1-3)Glc(b1-3)Glc(b1-3)Glc(b1-3)Glc(b1-3)Glc(b1-3)Glc
How it was run: as §1

[31] = biological target: Glc(b1-3)Glc(b1-3)Glc(b1-3)Glc(b1-3)Glc(b1-3)Glc(b1-3)Glc(b1-3)Glc(b1-3)Glc(b1-3)Glc
How it was run: as §1

[32] = biological target: Glc(b1-3)Glc(b1-3)Glc(b1-3)Glc(b1-3)Glc(b1-3)Glc(b1-3)Glc(b1-3)Glc(b1-3)Glc(b1-3)Glc(b1-3)Glc
How it was run: as §1

[33] = biological target: Glc(b1-3)Glc(b1-3)Glc(b1-3)Glc(b1-3)Glc(b1-3)Glc(b1-3)Glc(b1-3)Glc(b1-3)Glc(b1-3)Glc(b1-3)Glc(b1-3)Glc
How it was run: as §1

[34] = biological target: Glc(b1-3)Glc(b1-3)Glc(b1-3)Glc(b1-3)Glc(b1-3)Glc(b1-3)Glc(b1-3)Glc(b1-3)Glc(b1-3)Glc(b1-3)Glc(b1-3)Glc(b1-3)Glc
How it was run: as §1

[35] = biological target: Glc(b1-3)Glc(b1-3)Glc(b1-3)Glc(b1-3)Glc(b1-3)Glc(b1-3)Glc(b1-3)[Glc(b1-6)]Glc(b1-3)Glc
How it was run: as §1

[36] = biological target: Glc(b1-3)Glc(b1-3)Glc(b1-3)Glc(b1-3)Glc(b1-3)Glc(b1-3)[Glc(b1-6)]Glc(b1-3)Glc(b1-3)Glc
How it was run: as §1

[37] = biological target: Glc(b1-3)Glc(b1-3)Glc(b1-3)Glc(b1-3)[Glc(b1-6)]Glc(b1-3)Glc(b1-3)Glc(b1-3)Glc(b1-3)Glc
How it was run: as §1

[38] = biological target: Glc(b1-3)Glc(b1-3)Glc(b1-3)[Glc(b1-6)]Glc(b1-3)Glc(b1-3)Glc(b1-3)Glc(b1-3)[Glc(b1-6)]Glc(b1-3)Glc
How it was run: as §1

[39] = biological target: Glc(b1-3)Glc(b1-3)[Glc(b1-6)]Glc(b1-3)Glc(b1-3)Glc(b1-3)Glc(b1-3)Glc(b1-3)Glc(b1-3)Glc
How it was run: as §1

[40] = biological target: Glc(b1-3)Glc(b1-4)Glc
How it was run: as §1

[41] = biological target: Glc(b1-3)Glc(b1-4)Glc(b1-4)Glc
How it was run: as §1

[42] = biological target: Glc(b1-3)Glc(b1-4)Glc(b1-6)Glc(b1-4)Glc
How it was run: as §1

[43] = biological target: Glc(b1-3)[Glc(b1-6)]Glc(a1-3)Glc(b1-3)[Glc(b1-6)]Glc
How it was run: as §1

[44] = biological target: Glc(b1-3)[Glc(b1-6)]Glc(b1-3)Glc(b1-3)Glc(b1-3)Glc(b1-3)Glc(b1-3)Glc(b1-3)Glc
How it was run: as §1

[45] = biological target: Glc(b1-4)Glc
How it was run: as §1

Measured: glycan array binding signal (z-score)

B1: Dectin-1 (Mus musculus), Q6QLQ4 (protein)
chain: GHNSGRNPEEKDNFLSRNKENHKPTESSLDEKVAPSKASQTTGGFSQPCLPNWIMHGKSCYLFSFSGNSWYGSKRHCSQLGAHLLKIDNSKEFEFIESQTSSHRINAFWIGLSRNQSEGPWFWEDGSAFFPNSFQVRNTAPQESLLHNCVWIHGSEVYNQICNTSSYSICEKEL
-0.113: [1] | [29]
-0.095: [27]
13.4: [34]
-0.101: [26]
5.34: [33]
1.33: [32]
-0.082: [4]
-0.09: [3] | [5]
-0.091: [2]
-0.135: all other assays above
